# Where “and” joins values, the source holds several entries; their conditions need not be identical. Identical values can stand only once. The inconclusive results got no clear call from the source; some entries with a clear call stand among them for comparison. For part of these data: A potency beside an inconclusive call is a rough fit, not a confirmed value. Where a structure was tested more than once in an assay, its records may differ in their call. Calls of active or inactive are those of the source. Unless noted, the call rests on the fitted dose curve; in most records, active means well fitted curve in the direction sought with a large enough effect; inconclusive means small, poorly fitted or top-dose-only effect, or another doubt; inactive means no such curve, though single readings can be large; an effect the other way counts as inactive or inconclusive.
# How the values were obtained:
# [1] = Primary qHTS to identify inhibitors of SARS-CoV-2 cell entry (AID 1645846; calls by dose curve; further: nearly all actives have a fitted effect of over 45% in size; further: potency means the concentration at half of the fitted maximal effect)
# How it was run: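 Entry measured by luciferase signal 48 h after adding SARS-CoV-2-S pseudotyped MLV particles to HEK293-ACE2 cells preincubated 1 h with compounds. Normalisation: bald particles and spike particles.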
# [2] = Primary qHTS for inhibitors of nuclear receptor binding SET domain protein 2 (NSD2) in an RCH-ACV wild type WT cells (2C) (AID 1645877); further: nearly all actives have a fitted effect of over 70% in size; further: potency means the concentration at half of the fitted maximal effect
# [3] = target: Phospholipid hydroperoxide glutathione peroxidase GPX4 (Homo sapiens) (UniProt P36969); experiment: Primary qHTS Assay for Inhibitors of Recombinant Selenoprotein Glutathione Peroxidase 4 (GPX4) (AID 1845192); further: nearly all actives have a fitted effect of over 65% in size; further: potency means the concentration at half of the fitted maximal effect
# Sequence of UniProt P36969 (P36969 whole entry, looked up): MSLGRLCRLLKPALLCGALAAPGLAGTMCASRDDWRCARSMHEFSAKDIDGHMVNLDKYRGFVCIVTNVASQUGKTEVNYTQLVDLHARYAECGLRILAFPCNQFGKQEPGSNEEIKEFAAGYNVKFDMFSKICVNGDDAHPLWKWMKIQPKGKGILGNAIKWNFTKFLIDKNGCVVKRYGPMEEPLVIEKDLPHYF
# How it was run: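 qHTS, GR-coupled: GPX4 200 nM + cpd 30 min RT → GSH 1 mM, NADPH 0.5 mM, GR 100 nM → CHP 0.5 mM start; fluor 340/450 at t0 and t15 min; no-enzyme wells as control.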
# [4] = VSVG counterscreen qHTS to identify inhibitors of SARS-CoV-2 cell entry (AID 1645847; calls by dose curve; further: potency means the concentration at half of the fitted maximal effect; nearly all actives have a fitted effect of over 65% in size)
# How it was run: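 Luminescence read after 48 h infection at 37 C with VSV-G-pseudotyped MLV particles, following 1 h compound exposure of Expi293F cells stably expressing human ACE2; scaled between bald particle and VSV-G particle wells.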
# [5] = Primary qHTS for inhibitors of nuclear receptor binding SET domain protein 2 (NSD2) in an isogenic RCH-ACV NSD2 p.E1099K mutant (9B) (AID 1645876); further: potency means the concentration at half of the fitted maximal effect; nearly all actives have a fitted effect of over 70% in size
# [6] = target: Luciferin 4-monooxygenase (Photinus pyralis) (UniProt P08659); experiment: Primary firefly luciferase (FLuc) qHTS assay for identification of artifact compounds. (AID 1845220); further: nearly all actives have a fitted effect of over 60% in size
# How it was run: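 In this counter-screen for luciferase artifacts, test compounds met substrate (10 uM each luciferin and ATP) before 10 nM enzyme started the reaction. Light output was measured 5 min later.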
# [7] = target: Rap guanine nucleotide exchange factor 4 (Homo sapiens) (UniProt Q8WZA2); experiment: Confirmatory qHTS for antagonist of cAMP-regulated guanine nucleotide exchange factor 4 (EPAC2) (AID 1645885); further: potency means the concentration at half of the fitted maximal effect; nearly all actives have a fitted effect of over 25% in size
# Sequence of UniProt Q8WZA2 (Q8WZA2 whole entry, looked up): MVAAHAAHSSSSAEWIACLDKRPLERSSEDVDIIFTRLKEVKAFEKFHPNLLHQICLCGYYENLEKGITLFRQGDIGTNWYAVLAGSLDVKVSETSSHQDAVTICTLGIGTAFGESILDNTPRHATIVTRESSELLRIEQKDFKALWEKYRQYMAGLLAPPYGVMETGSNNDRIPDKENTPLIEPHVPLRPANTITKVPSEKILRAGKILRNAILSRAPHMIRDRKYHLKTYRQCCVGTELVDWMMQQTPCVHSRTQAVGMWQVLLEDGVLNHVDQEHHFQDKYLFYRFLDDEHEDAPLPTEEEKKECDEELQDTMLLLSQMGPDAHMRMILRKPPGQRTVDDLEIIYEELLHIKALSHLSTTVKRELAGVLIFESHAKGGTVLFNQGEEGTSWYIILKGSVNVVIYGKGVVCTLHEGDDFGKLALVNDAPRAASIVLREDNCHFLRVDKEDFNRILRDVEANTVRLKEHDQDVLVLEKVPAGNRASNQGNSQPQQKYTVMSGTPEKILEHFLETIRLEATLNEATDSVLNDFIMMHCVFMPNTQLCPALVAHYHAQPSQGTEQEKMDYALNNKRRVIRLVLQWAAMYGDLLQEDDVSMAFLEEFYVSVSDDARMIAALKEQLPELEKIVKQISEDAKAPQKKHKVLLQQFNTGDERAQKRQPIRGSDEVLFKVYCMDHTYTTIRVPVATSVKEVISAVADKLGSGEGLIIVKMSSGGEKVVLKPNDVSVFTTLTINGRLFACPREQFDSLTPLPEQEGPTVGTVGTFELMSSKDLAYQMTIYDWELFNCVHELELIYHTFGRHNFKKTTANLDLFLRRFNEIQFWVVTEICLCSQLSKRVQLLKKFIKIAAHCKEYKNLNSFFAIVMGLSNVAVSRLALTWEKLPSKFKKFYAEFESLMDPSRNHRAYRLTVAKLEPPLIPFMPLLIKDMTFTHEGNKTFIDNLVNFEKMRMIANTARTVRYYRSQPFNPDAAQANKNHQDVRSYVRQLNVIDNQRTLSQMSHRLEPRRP
# [8] = target: Glutathione peroxidase 1 (Homo sapiens) (UniProt P07203); experiment: Primary qHTS Assay for Inhibitors of Recombinant Selenoprotein Glutathione Peroxidase 1 (GPX1) (AID 1845191); further: potency means the concentration at half of the fitted maximal effect; nearly all actives have a fitted effect of over 65% in size
# Sequence of UniProt P07203 (P07203 whole entry, looked up): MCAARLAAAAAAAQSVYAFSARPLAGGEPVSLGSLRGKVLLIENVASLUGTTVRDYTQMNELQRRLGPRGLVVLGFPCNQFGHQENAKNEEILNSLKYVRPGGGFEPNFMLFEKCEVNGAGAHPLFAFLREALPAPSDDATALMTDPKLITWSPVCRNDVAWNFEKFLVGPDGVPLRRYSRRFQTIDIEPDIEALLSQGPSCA
# How it was run: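 GPX1 10 nM, GR 100 nM, GSH 1 mM, NADPH 0.5 mM, CHP 0.5 mM (final). 30-min cpd preincubation, RT. Ex340/Em450 read t=0, t=15 min.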
# Tags describe the fitted curve by direction and shape.
smiles,measurement,setting,value
O=C1C=CC[C@@H]2[C@H]3CCCN4CCC[C@@H](CN12)[C@@H]34,Potency,[1],inactive
same,Potency,[2],inactive
O=C(O)CCCc1ccc(N(CCCl)CCCl)cc1,Potency,[1],"inconclusive: 31.6 µM [inhibitor, partial curve, poor fit] and inconclusive: 2.82 µM [inhibitor, full curve, poor fit]"
same,Potency,[2],inactive
CC[C@]1(O)CC[C@H]2[C@@H]3CCC4=CCCC[C@@H]4[C@H]3CC[C@@]21C,Potency,[1],"inconclusive: 39.8 µM [inhibitor, single point]"
same,Potency,[3],"inconclusive: 14.1 µM [inhibitor, partial curve, poor fit]"
C[C@]12CC[C@H]3[C@@H](CCC4=CC(=O)CC[C@@H]43)[C@@H]1CC[C@@H]2OC(=O)CCC1CCCCC1,Potency,[1],"inconclusive: 3.55 µM [inhibitor, full curve, poor fit]"
same,Potency,[2],active: 18.8 µM
same,Potency,[3],"inconclusive: 10 µM [inhibitor, partial curve, poor fit]"
C[C@H](Nc1ncnc2nc[nH]c12)c1nc2ccc(F)cc2c(=O)n1-c1ccccc1,Potency,[4],"inconclusive: 2.15 µM [inhibitor, partial curve, poor fit]"
same,Potency,[5],"inconclusive: 0.0145 µM [inhibitor, full curve, poor fit]"
same,Potency,[2],"inconclusive: 0.23 µM [inhibitor, full curve, poor fit]"
same,Potency,[6],inactive
C[C@@H]1O[C@@H](O[C@@H]2C=C3CC[C@@H]4[C@H](CC[C@]5(C)[C@@H](c6ccc(=O)oc6)CC[C@]45O)[C@@]3(C)CC2)[C@H](O)[C@H](O)[C@H]1O,Potency,[1],"inconclusive: 2.82 µM [inhibitor, full curve, poor fit]"
same,Potency,[3],inactive
C[C@H]1O[C@@H](O[C@H]2[C@@H](O)C[C@H](O[C@H]3[C@@H](O)C[C@H](O[C@H]4CC[C@@]5(C)[C@H](CC[C@@H]6[C@@H]5CC[C@]5(C)[C@@H](C7=CC(=O)OC7)CC[C@]65O)C4)O[C@@H]3C)O[C@@H]2C)C[C@H](O)[C@@H]1O,Potency,[1],"inconclusive: 3.98 µM [inhibitor, full curve, poor fit]"
same,Potency,[2],active: 42.2 nM and active: 85.8 nM
same,Potency,[7],"inconclusive: 31.2 µM [inhibitor, partial curve, poor fit]"
same,Potency,[3],inactive
C[C@]12CC[C@@H]3c4ccc(OC(=O)N(CCCl)CCCl)cc4CC[C@H]3[C@@H]1CC[C@@H]2OP(=O)(O)O,Potency,[1],"inconclusive: 28.2 µM [inhibitor, single point]"
same,Potency,[3],"inconclusive: 9.04 µM [inhibitor, partial curve] and active: 12.6 µM"
O=C(Nc1ccc(Br)cc1)c1cc(Br)cc(Br)c1O,Potency,[1],inactive
same,Potency,[8],"inconclusive: 16.1 µM [inhibitor, partial curve, poor fit]"
O=C1OC(c2ccc(O)c(S(=O)(=O)O)c2)(c2ccc(O)c(S(=O)(=O)O)c2)c2c(Br)c(Br)c(Br)c(Br)c21,Potency,[1],inactive
same,Potency,[3],"inconclusive: 22.7 µM [inhibitor, single point]"
CCC(COC(=O)c1cc(OC)c(OC)c(OC)c1)(c1ccccc1)N(C)C (stereo not given),Potency,[1],"inconclusive: 10 µM [inhibitor, partial curve, poor fit]"
same,Potency,[2],inactive
O=C(N[C@@H](COc1ccc2[nH]c(=O)[nH]c2c1)c1ccccc1)c1cccn(Cc2ccc(F)c(F)c2)c1=O,Potency,[1],"inconclusive: 35.5 µM [inhibitor, single point]"
same,Potency,[2],active: 4.17 µM
same,Potency,[3],"inconclusive: 10.1 µM [inhibitor, partial curve]"
CCOC(=O)c1cncn1C(C)c1ccccc1 (stereo not given),Potency,[1],inactive
same,Potency,[2],inactive
COc1cccc(C(=O)CCN[C@@H](C)[C@H](O)c2ccccc2)c1,Potency,[1],"inconclusive: 22.4 µM [inhibitor, partial curve, poor fit]"
same,Potency,[3],inactive
COc1ccc(C(=O)c2c(C)n(CCN3CCOCC3)c3ccccc23)cc1,Potency,[1],active: 31.6 µM
same,Potency,[2],active: 18.8 µM
CCN1CCN(C(=O)Cc2ccc(Nc3ncc(F)c(Nc4ccc(C(=O)Nc5ccccc5Cl)cc4)n3)cc2)CC1,Potency,[1],active: 8.91 µM
same,Potency,[3],"inconclusive: 18 µM [inhibitor, single point]"
CN(C)CCN(C)CCc1ccc(Cl)c(Cl)c1,Potency,[1],"inconclusive: 31.6 µM [inhibitor, single point]"
same,Potency,[2],inactive
CO[C@@H](C(=O)N1Cc2[nH]nc(NC(=O)c3ccc(N4CCN(C)CC4)cc3)c2C1)c1ccccc1,Potency,[4],"inconclusive: 0.304 µM [inhibitor, full curve]"
O=P1(NCCCl)OCCCN1CCCl (stereo not given),Potency,[1],inactive
same,Potency,[2],inactive
O=S(=O)(CC1CS1)c1ccc(Oc2ccccc2)cc1 (stereo not given),Potency,[1],inactive
same,Potency,[2],active: 5.25 µM
